For the test, the system named is primary human hepatic stellate cells (donor 1). In words: scaled lipid accumulation score (0 = DMSO-like, 1 = nortriptyline-like); higher = stronger HSC inactivation (lipid re-accumulation), active = hit call of the paper. The conditions noted are these: 48 h.
Where [1] appears, read: library stock concentration: 10 mM.
Where [2] appears, read: library stock concentration: 3.33 mM.

The source of these data is the supplement of paper PMC9135407.

Where “and” joins values, the source holds several entries; their conditions need not be identical. Equal entries are not always repeated. Structures can show the parent of a compound that is named as a salt. About 620 (11%) of roughly 5,800 compounds showed activity.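 Rule for the calls: active = score above a cut-off or among the top three wells of a plate; in these data no inactive exceeds 0.85.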 The entries are a selection whose mix differs from that of the whole data set.

As for `O=C1/C(=C/c2ccccc2)C[C@@]2(O)[C@H]3Cc4ccc(O)c5c4[C@@]2(CCN3CC2CC2)[C@H]1O5` [BNTX maleate salt hydrate], under setting [1], the “scaled lipid accumulation score” value was inactive: ≤ -0.006.

Turning to `CCCCCCCCCCCCCC(=O)O[C@@H]1[C@@H](C)[C@@]2(O)[C@@H](C=C(CO)C[C@]3(O)C(=O)C(C)=C[C@@H]23)[C@@H]2C(C)(C)[C@]12OC(C)=O` [Phorbol 12-myristate 13-acetate], the “scaled lipid accumulation score” value under setting [1] is inactive: ≤ 0.

On to `COc1ccc(C(=O)N2CCCC2=O)cc1` [Aniracetam], for which the “scaled lipid accumulation score” value was inactive: ≤ 0 under setting [2]; inactive: ≤ -0.006 and inactive: 0.001 (library stock concentration: 9.1 mM); inactive: ≤ 0 and inactive: 0.022 under setting [1].

As for `Cc1ncc(CN2CC=C(c3ccccc3)CC2)c(N)n1`, under setting [1], the “scaled lipid accumulation score” value was inactive: ≤ -0.001.

`Cc1[nH]c2ccc(O)cc2c1CCN` [2-Methyl-5-hydroxytryptamine hydrochloride]: under setting [1], the “scaled lipid accumulation score” value is inactive: 0.026.

In the case of `Cc1[nH]c2ccc(O)cc2c1CCN` [2-Methyl-5-hydroxytryptamine maleate], under setting [1], the “scaled lipid accumulation score” value was inactive: 0.018.

`C[C@@H]1O[C@@H](O[C@H]2C[C@@H](O)[C@]3(CO)[C@@H]4C(CC[C@]3(O)C2)[C@@]2(O)CC[C@H](C3COC(=O)C3)[C@@]2(C)C[C@H]4O)[C@H](O)[C@H](O)[C@H]1O` (stereo partly specified) [Dihydroouabain]: the “scaled lipid accumulation score” value under setting [1] was active: 0.964.

As for `O=C(O[C@H]1C[C@H]2CC[C@@H](C1)[N+]21CCCC1)C(O)(c1ccccc1)c1ccccc1` [Trospium chloride], the “scaled lipid accumulation score” value reads like this: under setting [2], inactive: ≤ 0; under setting [1], inactive: ≤ 0.

As to `C[C@]12CCC(=O)C=C1CC[C@@H]1[C@@H]2C(=O)C[C@]2(C)C(=O)CC[C@@H]12` [Adrenosterone], the “scaled lipid accumulation score” value was inactive: ≤ 0.

On to `CC[C@H](C)[C@H]1O[C@]2(C=C[C@@H]1C)C[C@@H]1C[C@@H](C/C=C(\C)[C@@H](O[C@H]3C[C@H](OC)[C@@H](O[C@H]4C[C@H](OC)[C@@H](O)[C@H](C)O4)[C@H](C)O3)[C@@H](C)/C=C/C=C3\CO[C@@H]4[C@H](O)C(C)=C[C@@H](C(=O)O1)[C@]34O)O2.CO[C@H]1C[C@H](O[C@H]2[C@H](C)O[C@@H](O[C@@H]3/C(C)=C/C[C@@H]4C[C@@H](C[C@]5(C=C[C@H](C)[C@@H](C(C)C)O5)O4)OC(=O)[C@@H]4C=C(C)[C@@H](O)[C@H]5OC/C(=C\C=C\[C@@H]3C)[C@]54O)C[C@@H]2OC)O[C@@H](C)[C@@H]1O` [Avermectin b1], for which the “scaled lipid accumulation score” value under setting [1] is inactive: ≤ 0.

In the case of `CC[C@H](C)[C@H]1O[C@]2(C=C[C@@H]1C)C[C@@H]1C[C@@H](C/C=C(\C)[C@@H](O[C@H]3C[C@H](OC)[C@@H](O[C@H]4C[C@H](OC)[C@@H](O)[C@H](C)O4)[C@H](C)O3)[C@@H](C)/C=C/C=C3\CO[C@@H]4[C@H](O)C(C)=C[C@@H](C(=O)O1)[C@]34O)O2.CO[C@H]1C[C@H](O[C@H]2[C@H](C)O[C@@H](O[C@@H]3/C(C)=C/C[C@@H]4C[C@@H](C[C@]5(C=C[C@H](C)[C@@H](C(C)C)O5)O4)OC(=O)[C@@H]4C=C(C)[C@@H](O)[C@H]5OC/C(=C\C=C\[C@@H]3C)[C@]54O)C[C@@H]2OC)O[C@@H](C)[C@@H]1O` [Abamectin], for the setting “library stock concentration: 2.3 mM”, the “scaled lipid accumulation score” value was inactive: 0.027 and inactive: ≤ 0.

Regarding `CC[C@H](C)[C@H]1O[C@]2(C=C[C@@H]1C)C[C@@H]1C[C@@H](C/C=C(\C)[C@@H](O[C@H]3C[C@H](OC)[C@@H](O[C@H]4C[C@H](OC)[C@@H](O)[C@H](C)O4)[C@H](C)O3)[C@@H](C)/C=C/C=C3\CO[C@@H]4[C@H](O)C(C)=C[C@@H](C(=O)O1)[C@]34O)O2.CO[C@H]1C[C@H](O[C@H]2[C@H](C)O[C@@H](O[C@@H]3/C(C)=C/C[C@@H]4C[C@@H](C[C@]5(C=C[C@H](C)[C@@H](C(C)C)O5)O4)OC(=O)[C@@H]4C=C(C)[C@@H](O)[C@H]5OC/C(=C\C=C\[C@@H]3C)[C@]54O)C[C@@H]2OC)O[C@@H](C)[C@@H]1O` [Avermectin B1], the “scaled lipid accumulation score” value was inactive: ≤ 0.

Regarding `CN1C2CCC1CC(OC(=O)c1cc(Cl)cc(Cl)c1)C2` (stereo unspecified), the “scaled lipid accumulation score” value under setting [1] was active: 1.04.

With `CN(C)Cc1c[nH]c2ccccc12` [Gramine], the “scaled lipid accumulation score” value is inactive: 0.049. Besides, the “scaled lipid accumulation score” value under setting [2] is inactive: ≤ 0. For the same compound, the “scaled lipid accumulation score” value under setting [1] is inactive: 0.643.

For `Nc1ccncc1` [4-Aminopyridine], the “scaled lipid accumulation score” value was inactive: ≤ 0 and inactive: 0.047 under setting [1]; inactive: ≤ -0.021 (library stock concentration: 53.1 mM).

Turning to `Nc1ccncc1` [Fampridine], the “scaled lipid accumulation score” value (library stock concentration: 21.3 mM) was inactive: ≤ 0.

On to `C[N+]1(C)CCOC(O)(c2ccc(-c3ccc(C4(O)C[N+](C)(C)CCO4)cc3)cc2)C1` (stereo unspecified) [Hemicholinium bromide], for which the “scaled lipid accumulation score” value was inactive: 0.078.

With `C[N+]1(C)CCOC(O)(c2ccc(-c3ccc(C4(O)C[N+](C)(C)CCO4)cc3)cc2)C1` (stereo unspecified) [Hemicholinium-3], the “scaled lipid accumulation score” value under setting [1] is inactive: ≤ -0.07.

With `COc1ccc(CNC(=O)/C=C/c2ccc3[nH]cc(CCN(C)C)c3c2)cc1`, the “scaled lipid accumulation score” value under setting [1] was inactive: 0.736.

On to `C[CH2][Hg][S]c1ccccc1C(=O)[O-].[Na+]` [Thimerosal], for which the “scaled lipid accumulation score” value (library stock concentration: 4.9 mM) was inactive: ≤ 0 and the “scaled lipid accumulation score” value under setting [1] is inactive: 0.537.

As for `NC(=O)C[S@@+]([O-])C(c1ccccc1)c1ccccc1`, under setting [1], the “scaled lipid accumulation score” value is inactive: ≤ 0.

Consider `CC(C)(C)OC(=O)NC1[C@H]2CNC[C@@H]12` (stereo partly specified), for which, under setting [1], the “scaled lipid accumulation score” value was inactive: ≤ -0.033.

As to `Cc1ncc2n1-c1ccc(Cl)cc1C(c1ccccc1F)=NC2`, the “scaled lipid accumulation score” value under setting [1] was inactive: ≤ 0.

As to `NC(=O)c1ccc(OCC(O)CN2CC=C(c3ccc(F)cc3)CC2)cc1` (stereo unspecified), the “scaled lipid accumulation score” value under setting [1] was inactive: 0.081.

With `NNCc1ccccc1` [Benzylhydrazine hydrochloride], the “scaled lipid accumulation score” value under setting [1] was inactive: 0.294.

As to `CC(C)=CC1C(C(=O)OCc2cccc(Oc3ccccc3)c2)C1(C)C` (stereo unspecified) [Phenothrin], under setting [1], the “scaled lipid accumulation score” value was inactive: ≤ -0.027.

On to `CCOC(=O)CN1C(=O)CC(C[C@@H](O)C2C[C@@H](C)C[C@H](C)C2=O)CC1=O` (stereo partly specified) [Cycloheximide-N-ethylethanoate], for which, for the setting “library stock concentration: 13.6 mM”, the “scaled lipid accumulation score” value is inactive: ≤ -0.021.

`C[N+](C)(C)CC#CCN1CCCC1=O` [Oxotremorine methiodide]: under setting [1], the “scaled lipid accumulation score” value was inactive: ≤ -0.055.

Regarding `C[N+](C)(C)CC#CCN1CCCC1=O` [Oxotremorine M], under setting [1], the “scaled lipid accumulation score” value was inactive: ≤ 0.
